Assay results from the supplement of paper PMC11876631.
Substitutions are numbered along the chain they refer to. Names may count otherwise. ± gives the standard deviation of the averaged measurements. Laboratory Escherichia coli strains with one amino-acid change in an essential protein, pooled on minimal glucose agar with carbenicillin or gentamicin at twice the control MIC (plus kanamycin and chloramphenicol for the plasmids), 48 h. Fold change of barcode share against drug-free plates; higher = less susceptible. Active = above 20 in both replicates (the paper's putatively resistant). '<' = one read or none on drug, '>' = one read or none on a drug-free plate. Shares are relative, so most strains fall below 1 when a few take over. Listed are strains with at least 15 reads on both drug-free plates, and hits; most hits rest on fewer reference reads. Replicate rank correlation about 0.5. Edits are read from barcodes.

Target: Escherichia coli (laboratory strain)
Experiment: barcode share on antibiotic plates over drug-free plates; higher = less susceptible
Experimental: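 A pool of E. coli strains, each edited to carry one amino-acid change in an essential protein, was grown for 48 h on minimal glucose agar with or without antibiotic; strain barcodes were sequenced; mean of two replicates.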

[1] = antibiotic: carbenicillin, 2× MIC (3.1 µg/mL)
[2] = antibiotic: gentamicin, 2× MIC (MIC 0.45 µg/mL)

B1: metB V210Q (protein)
chain: MTRKQATIAVRSGLNDDEQYGCVVPPIHLSSTYNFTGFNEPRAHDYSRRGNPTRDVVQRALAELEGGAGAVLTNTGMSAIHLVTTVFLKPGDLLVAPHDCYGGSYRLFDSLAKRGCYRVLFVDQGDEQALRAALAEKPKLVLVESPSNPLLRVVDIAKICHLAREVGAVSVVDNTFLSPALQNPLALGADLVLHSCTKYLNGHSDVVAGQVIAKDPDVVTELAWWANNIGVTGGAFDSYLLLRGLRTLVPRMELAQRNAQAIVKYLQTQPLVKKLYHPSLPENQGHEIAARQQKGFGAMLSFELDGDEQTLRRFLGGLSLFTLAESLGGVESLISHAATMTHAGMAPEARAAAGISETLLRISTGIEDGEDLIADLENGFRAANKG
fold change of barcode share [1]: 0.373 ± 0.062
fold change of barcode share [2]: 0.0104 ± 0.0028

B2: metB V210D (protein)
chain: B1 chain with Q210D
fold change of barcode share [1]: 0.22 ± 0.076
fold change of barcode share [2]: < 0.00535

B3: metB V210P (protein)
chain: B1 chain with Q210P
fold change of barcode share [1]: 0.298 ± 0.094
fold change of barcode share [2]: < 0.00548

B4: metE V127A (protein)
chain: MTILNHTLGFPRVGLRRELKKAQESYWAGNSTREELLAVGRELRARHWDQQKQAGIDLLPVGDFAWYDHVLTTSLLLGNVPARHQNKDGSVDIDTLFRIGRGRAPTGEPAAAAEMTKWFNTNYHYMAPEFVKGQQFKLTWTQLLDEVDEALALGHKVKPVLLGPVTWLWLGKVKGEQFDRLSLLNDILPVYQQVLAELAKRGIEWVQIDEPALVLELPQAWLDAYKPAYDALQGQVKLLLTTYFEGVTPNLDTITALPVQGLHVDLVHGKDDVAELHKRLPSDWLLSAGLINGRNVWRADLTEKYAQIKDIVGKRDLWVASSCSLLHSPIDLSVETRLDAEVKSWFAFALQKCHELALLRDALNSGDTAALAEWSAPIQARRHSTRVHNPAVEKRLAAITAQDSQRANVYEVRAEAQRARFKLPAWPTTTIGSFPQTTEIRTLRLDFKKGNLDANNYRTGIAEHIKQAIVEQERLGLDVLVHGEAERNDMVEYFGEHLDGFVFTQNGWVQSYGSRCVKPPIVIGDISRPAPITVEWAKYAQSLTDKPVKGMLTGPVTILCWSFPREDVSRETIAKQIALALRDEVADLEAAGIGIIQIDEPALREGLPLRRSDWDAYLQWGVEAFRINAAVAKDDTQIHTHMCYCEFNDIMDSIAALDADVITIETSRSDMELLESFEEFDYPNEIGPGVYDIHSPNVPSVEWIEALLKKAAKRIPAERLWVNPDCGLKTRGWPETRAALANMVQAAQNLRRG
fold change of barcode share [1]: 0.518 ± 0.13
fold change of barcode share [2]: < 0.0082

B5: metE V127Q (protein)
chain: B4 chain with A127Q
fold change of barcode share [1]: 1.09 ± 0.19

B6: metE I662A (protein)
chain: B4 chain with A127V, I662A
fold change of barcode share [1]: 0.666 ± 0.094

B7: metE L239A (protein)
chain: B4 chain with A127V, L239A
fold change of barcode share [1]: 0.399 ± 0.26
fold change of barcode share [2]: 0.0161 ± 0.013

B8: metE L239W (protein)
chain: B4 chain with A127V, L239W
fold change of barcode share [1]: 0.542 ± 0.38
fold change of barcode share [2]: 0.0142 ± 0.011

B9: metE L239Q (protein)
chain: B4 chain with A127V, L239Q
fold change of barcode share [1]: 0.968 ± 0.77
fold change of barcode share [2]: < 0.00781
